Some of the results follow. For some assays here: At the low end of the ranking, values are background and their order means little. For some assays here: Measured with an extract: partners may take part in the binding.
Key:
Conditions in all cases: 20 mM HEPES pH 7.9, 100 mM NaCl, 1 mM DTT, 0.2 mg/mL BSA, 0.02% Triton X-100, 2% milk, 0.4 mg/mL salmon testes DNA; 1 h; temperature not stated; high values mean tight binding; double strand, one strand shown; sequences stand for … in GCCTAGCAC…GTGCTAGGTCTTGATTCGCTTGACGCTGCTG
[1] = target: PU.1 (IVT) (UniProt P17947); assay: protein-binding microarray (PBM)
[2] = target: PU.1 (endogenous, THP-1 nuclear extract) (UniProt P17947); assay: nuclear extract protein-binding microarray (nextPBM)
[3] = target: T1, FLI1 (endogenous, THP-1 nuclear extract) (UniProt Q01543); assay: as above
T1 sequence: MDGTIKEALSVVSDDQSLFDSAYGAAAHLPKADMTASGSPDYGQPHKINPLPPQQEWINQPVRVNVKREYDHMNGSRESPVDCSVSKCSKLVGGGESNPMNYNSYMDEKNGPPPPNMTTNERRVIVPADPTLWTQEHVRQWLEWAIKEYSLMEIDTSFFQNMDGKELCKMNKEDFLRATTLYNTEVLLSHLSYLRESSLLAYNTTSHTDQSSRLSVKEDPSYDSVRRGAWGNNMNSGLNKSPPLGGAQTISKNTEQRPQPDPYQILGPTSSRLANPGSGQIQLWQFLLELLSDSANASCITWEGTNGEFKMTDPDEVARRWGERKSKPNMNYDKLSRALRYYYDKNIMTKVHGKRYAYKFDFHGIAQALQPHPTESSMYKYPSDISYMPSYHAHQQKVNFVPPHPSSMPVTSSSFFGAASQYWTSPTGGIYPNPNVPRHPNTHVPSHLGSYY

[4] = tested on: PU.1 (endogenous, THP-1 nuclear extract) + IRF8 (endogenous, THP-1 nuclear extract); assay: as above

Row | Sequence | binding signal [1] [z-score] | binding signal [2] [z-score] | binding signal [3] [z-score] | binding signal [4] [z-score]
1 | TACATTTTCTTATGCTTCCC | 0.394 | 0.118 | 1.39 | -0.0763
2 | AGAATAGAGCCCACAGGACA | -0.144 | -0.207 | -0.145 | -0.287
3 | GTGGGTTTGTCATTTGTATC | -0.356 | -0.613 | 0.142 | -0.979
4 | TGTTTGACTTGGTGATCTCT | -0.467 | -0.549 | -0.342 | -0.571
5 | TAGCCGCCTCTTGGACGGGC | -0.609 | -0.308 | -0.592 | 1.22
6 | TAAAAGGTTAATTAGTTCCA | 0.152 | 0.194 | -0.105 | 0.651
7 | GTCTGGAGGGCGGACGCGAG | -0.689 | 0.0878 | 0.686 | 0.701
8 | GCTTAGTCAGCATGGGTTCT | -0.41 | -0.327 | -0.289 | 0.973
9 | CATTTGTTATCTTTAACCTG | -0.307 | -0.555 | -0.112 | -0.865
10 | GAGCCAGAACTAGCCAAAGA | -0.446 | -0.272 | -0.153 | -0.546
11 | CCATGCATACAGAAGAGTGT | -0.374 | -0.383 | -0.0451 | 0.315
12 | AAGGGAAGATGTTTTGTAAT | 0.314 | 0.416 | 0.248 | -0.288
13 | TATCTGCTGTATATCATTGG | 0.0351 | -0.481 | -0.202 | 0.398
14 | CATTGGAAAGTGGGTTGGAA | 1.04 | 0.901 | 0.546 | 0.783
15 | GATATTTACCATTGTGTTAC | -0.182 | -0.36 | 0.0233 | -0.744
16 | ATTCGGTAGCGCAGGCTCCG | -0.464 | -0.405 | 0.15 | 0.0052
17 | CAAAAGAAATTCCTCAGCCC | 0.123 | 0.0467 | -0.206 | -0.539
18 | TGCTGTTATCAAGAGATGAA | 0.474 | 0.22 | -0.343 | -0.78
19 | CTCAAGGGTGAGTTACATGC | -0.801 | -0.104 | -0.648 | 1.23
20 | CATGAGGATTATTTTAGAAG | -0.261 | -0.719 | -0.531 | -0.554
21 | GTATTCACTGCCTGAAACTC | -0.327 | -0.635 | -0.821 | 0.855
22 | GACGCTGCTGCGTGAAACTA | -0.415 | -0.417 | -0.591 | 3.54
23 | CAGCTGAGACCCCCAGCCGC | -0.47 | -0.218 | 0.72 | 1.04
24 | CCAAACACTGCCTGAAAGTC | -0.33 | -0.291 | 0.0963 | 0.154

Row | Sequence | binding signal [1] [z-score] | binding signal [2] [z-score] | binding signal [3] [z-score] | binding signal [4] [z-score]
25 | ACAACCTTGCACATCTTTTC | -0.0629 | -0.443 | -0.382 | 1.12
26 | TCAAATAAATACTGGAAAAC | -0.248 | -0.276 | 0.872 | -1.18
27 | ATTTAGTACTCAGTGATAAA | 0.121 | -0.162 | -0.476 | -0.53
28 | ATAGTGCTTTCACACTGTGT | -0.163 | -0.196 | -0.48 | 1.88
29 | GCAGACAGTGATTTAGGCTG | -0.454 | -0.256 | -0.148 | 0.385
30 | TAAAGGACTGCCTGAAACCA | -0.0217 | -0.211 | -0.245 | 2.62
31 | TATACAGAGGAGAATAATTA | -0.122 | -0.096 | -0.418 | -0.138
32 | GAAAGACTCTGAGTCTAAGC | -0.601 | -0.658 | -0.511 | -1.1
33 | TATTCATATGCGGGCAGGAA | 3.5 | 3.24 | 5.71 | -0.0462
34 | GGGATTAACCGGTGTTTCCT | -0.215 | -0.339 | 3.55 | -0.536
35 | TCAAGAGCGTAAGACTTTAT | -0.585 | -0.709 | -1.12 | -1.4
36 | ATCTCTGGCAGATTCATTAA | 0.0295 | -0.323 | -0.578 | -0.698
37 | ATGAATAAATATCACTTGAT | -0.19 | -0.455 | -0.122 | -0.933
38 | TAAATTCATTTTGATTATTA | 0.188 | 0.0504 | 0.307 | -0.269
39 | GAAAGCAACTTTCTACCTGA | 0.301 | -0.111 | 0.167 | 0.374
40 | GATCGGGGATGAGAAGGGGA | -0.457 | -0.312 | -0.175 | -0.242
41 | TTGGAGATAGGTTAGCAATA | -0.078 | -0.302 | -0.191 | -0.432
42 | GGTTTGAACATGATGCATCA | -0.343 | -0.861 | -0.653 | -0.97
43 | GTCAAGACTGCCTGAAACTG | 0.0987 | -0.304 | -0.137 | 3.06
44 | TGGCAGCCAAAGTGATCCTT | -0.135 | -0.32 | -0.562 | -0.0943
45 | GAAATGACTGCATGAAACCA | -0.622 | -0.41 | -0.473 | 1.9
46 | GTCATCTAAGGGGCCCTACG | -0.557 | -0.452 | -1.05 | 1.08
47 | CACCGCGGACTCTGCTCCGG | -0.538 | -0.429 | -0.0947 | 0.305
48 | TGGAATTGTTTTTAATCCAT | -0.657 | -0.233 | 0.0222 | -1.13

Row | Sequence | binding signal [1] [z-score] | binding signal [2] [z-score] | binding signal [3] [z-score] | binding signal [4] [z-score]
49 | TTGAAATTGTTCATTGTGTA | -0.377 | -0.496 | -0.481 | -1.46
50 | ATGGTGAGTCATCAGCATGC | -0.547 | -0.496 | -0.345 | 0.871
51 | GTGAGTCCCTTTTTTGTATT | 0.126 | -0.187 | -0.32 | 1.24
52 | TTTTATCAGGAAATGACTGG | 0.896 | 1.18 | 2.75 | -1.3
53 | AAAAAAAAAATCAGCTGATT | -0.116 | -0.317 | 1.13 | 0.0991
54 | AGAGAGTGGTTAGAGCCAGC | -0.562 | -0.332 | -0.877 | -0.747
55 | TTTCCTTCAGGAAAACAGTG | -0.228 | -0.0901 | 1.3 | -0.446
56 | GAGAAGGCTGCATGAAACTC | -0.593 | -0.326 | -0.128 | 3.01
57 | TGAAACACTGCGTGAAACCA | -0.383 | -0.366 | -0.757 | 2.83
58 | TCGTTGAGGGGAATTGGGGA | 0.237 | -0.0629 | -0.283 | 0.195
59 | CCAGTAGTAGTTAGGGCAGA | -0.0293 | -0.158 | -0.543 | 0.946
60 | AGTAGCAGTCCTGTCATGCG | -0.457 | -0.113 | -0.257 | -0.473
61 | GAGATCGTGCCATTGCACTC | -0.38 | -0.208 | -0.312 | -1.32
62 | GGAAGTTCACCCATTTGGCA | 0.853 | 1.17 | 2.81 | -0.0624
63 | TTTTTTTCTCAGTATTCTTT | -0.127 | -0.759 | -0.325 | -0.972
64 | CTGCTTTTGAGGACCTCAGG | 0.13 | -0.00722 | -0.426 | -1.37
65 | GCTGATAACCCAAAGAAGAG | -0.488 | -0.665 | -0.0876 | 0.839
66 | GTTGCCATTGTAAAGATAAT | -0.244 | -0.284 | -0.206 | 0.0666
67 | CGCAGATCCAGCGCCCAGAG | -0.173 | -0.314 | -0.463 | 0.0452
68 | AACAGCAACAGGCTTAGGTT | -0.278 | -0.261 | -0.859 | 0.78
69 | CTTTCCAAAACGTTTAGTCA | -0.529 | -0.545 | 0.208 | -0.977
70 | AAGAGTGATAAGGAAGTGCC | 4.08 | 4.43 | 2.01 | -0.785
71 | CTTGGCATCCGAAACATTAA | 0.542 | -0.335 | 0.98 | -0.957
